Experimental data: PMC4336329 (PLoS ONE, 2015)
Among all 310,000 compounds or so, about 14,000 (4.5%) showed an effect of 50% or more. The effect is printed as a negative number. This is one part of the list.

biological target: human ether-à-go-go-related gene (hERG) potassium channel (human, UniProt Q12809); assay: primary screen, population patch clamp on CHO cells stably expressing hERG
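Note: peak tail current of the secondary pulse compared with the same well before compound.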

human ether-à-go-go-related gene (hERG) potassium channel, sequence (Q12809 whole entry, looked up): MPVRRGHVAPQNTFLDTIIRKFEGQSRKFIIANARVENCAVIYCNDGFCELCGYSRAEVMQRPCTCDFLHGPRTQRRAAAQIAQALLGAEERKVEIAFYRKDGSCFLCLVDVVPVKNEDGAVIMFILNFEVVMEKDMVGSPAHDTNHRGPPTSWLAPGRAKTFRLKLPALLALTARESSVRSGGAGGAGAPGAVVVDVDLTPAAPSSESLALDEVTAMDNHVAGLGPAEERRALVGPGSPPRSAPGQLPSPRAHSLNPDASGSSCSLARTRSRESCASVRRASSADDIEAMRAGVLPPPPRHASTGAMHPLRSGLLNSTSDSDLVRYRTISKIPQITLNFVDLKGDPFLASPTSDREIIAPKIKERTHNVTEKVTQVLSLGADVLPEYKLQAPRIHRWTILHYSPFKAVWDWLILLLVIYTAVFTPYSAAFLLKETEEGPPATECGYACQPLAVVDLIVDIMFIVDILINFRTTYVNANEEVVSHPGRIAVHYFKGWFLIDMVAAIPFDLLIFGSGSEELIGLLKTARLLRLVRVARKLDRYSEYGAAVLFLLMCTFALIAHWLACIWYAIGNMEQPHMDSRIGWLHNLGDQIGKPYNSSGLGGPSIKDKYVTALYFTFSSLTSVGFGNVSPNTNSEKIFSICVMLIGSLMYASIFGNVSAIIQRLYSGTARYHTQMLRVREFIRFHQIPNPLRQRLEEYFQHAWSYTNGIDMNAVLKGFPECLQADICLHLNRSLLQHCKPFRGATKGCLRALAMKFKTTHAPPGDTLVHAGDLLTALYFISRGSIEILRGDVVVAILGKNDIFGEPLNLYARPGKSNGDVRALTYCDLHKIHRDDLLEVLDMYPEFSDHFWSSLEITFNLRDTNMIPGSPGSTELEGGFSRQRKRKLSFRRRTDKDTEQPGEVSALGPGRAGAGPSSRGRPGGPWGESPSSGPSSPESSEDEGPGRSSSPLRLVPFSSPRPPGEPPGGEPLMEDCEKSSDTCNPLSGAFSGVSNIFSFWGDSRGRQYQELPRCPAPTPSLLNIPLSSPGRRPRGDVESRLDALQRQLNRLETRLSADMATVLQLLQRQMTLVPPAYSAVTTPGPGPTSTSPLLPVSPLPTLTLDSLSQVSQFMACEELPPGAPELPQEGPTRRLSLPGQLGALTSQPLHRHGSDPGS

SMILES | hERG current change (%, negative = inhibition) at 10uM [%]
N#CCCN(C(=O)CSc1nnc(-c2ccncc2)n1C1CC1)c1ccccc1 | -2.57
Cc1ccc(S(=O)(=O)CCC(=O)NCc2ccccc2F)cc1 | -1.66
CCc1ccc(OCCCCN(C)Cc2ccccc2)cc1.O=C(O)C(=O)O | -47.7
Cn1nc(C(=O)N2CCN(S(=O)(=O)/C=C/c3ccccc3)CC2)c2ccccc2c1=O | -65.1
O=C(NCc1cccs1)c1ccccc1 | 4.9
O=C1C(Cl)=C(N2CCOCC2)C(=O)N1c1cccc(Cl)c1 | -1.92
CCN(CCCNC(=O)C1CCN(S(=O)(=O)c2cccc3nonc23)CC1)Cc1ccccc1 | -57.2
Cc1ccc(S(=O)(=O)CCC(=O)OC(C)C(=O)NC2CCCCC2C)cc1 (centres unmarked) | -1.21
N#Cc1c(NC(=O)COC(=O)c2ccc(F)cc2)sc2c1CCC2 | -13.7
COc1cc(C(=O)NCCOc2ccc(C)c(C)c2)cc(OC)c1OC | -10.7
C/C(=N\Nc1ccc(S(N)(=O)=O)cc1[N+](=O)[O-])c1cccs1 | 25.7
c1ccc(CN2CCOCCOCCOCCOCCOCCOCC2)cc1 | -3.44
CCCCCn1c(=O)[nH]c2cc(C(=O)NCCCN3CCCCC3)ccc2c1=O | -33.5
Nc1nc(SCc2ccccc2Cl)[nH]c(=O)c1-c1ccccc1 | 14.2
CCCC(=O)C1=C(N2CCCC2)CC(C)(C)C(C(=O)OC)C1=O (centres unmarked) | 7.45
Cc1cc(NC(=O)c2sc3ccccc3c2O)no1 | 17.2
CCCN(CCC)CCCNC(=S)Nc1ccc2nc(N3CCN(C)CC3)cc(C)c2c1 | 8.86
O=C(O)CCc1nnc(SCC(=O)Nc2ccc(Cl)c(C(F)(F)F)c2)[nH]c1=O | 19.8
COc1ccc(NC(C)=[N+](C)CCNS(=O)(=O)c2ccc(Cl)cc2)cc1Cl.[I-] | -69.5

SMILES | hERG current change (%, negative = inhibition) at 10uM [%]
Cc1csc(C(C)NC(=O)c2ccc(OC3CCN(CCc4ccccc4)CC3)cc2)n1 (centres unmarked) | -66.2
Cc1cc(-c2ccccc2)[nH]c(=O)c1C#N | 9.63
O=[N+]([O-])c1ccc(N2CCN(c3cccc(Cl)c3)CC2)nc1 | 14
CC(=O)Oc1ccc(CC(C(=O)O)N2C(=O)c3ccccc3C2=O)cc1 (centres unmarked) | 16.2
O=c1c2ccccc2oc2ccc(-c3ccc4[nH]ccc4c3)cc12 | -2.53
Cn1c(C(=O)Nc2ccc(Cl)cc2)cc2cc(Cl)ccc21 | -7.13
COc1ccc(C(=O)n2nc(-c3ccc(Cl)cc3)nc2N)cc1OC | 8.57
COc1cc(NC(=O)c2noc(C)c2[N+](=O)[O-])c(OC)cc1Cl | 7.72
Cc1cccc(OCC(=O)Nc2ccc(N3CCCC3)cc2)c1C | 14.3
O=c1[nH]c(=O)n(-c2cccc3ccccc23)c(O)c1/C=N/N1CCCCCC1 | -4.13
Cc1cc(C)c2sc(C)[n+](CCCS(=O)(=O)[O-])c2c1 | 15.6
Cc1c(C(=O)N2CCCCC2C)sc2ncnc(N3CCc4ccccc4C3)c12 (centres unmarked) | -33.8
O=C(NC1CC1)C1CCN(C2CCN(C(=O)c3ccc(C(F)(F)F)cc3)CC2)CC1 | -56.4
CC1(C)OC(=O)N(c2cccnc2)C1(C)O (centres unmarked) | 11.3
COc1ccccc1/C=N/NC(=O)CSc1ccc2ccccc2n1 | 24.6
CCOC(=O)C1=C(COC(=O)C(C)(C)Oc2ccc(Cl)cc2)NC(=O)NC1C (centres unmarked) | -19.3
Cc1nc2scc(-c3ccc(C(C)(C)C)cc3)c2c(=O)n1N | 4.74
CCc1c(O)nc(SCC(=O)Nc2ccccc2OC)[nH]c1=O | 13.1
N#Cc1nc(-c2ccccc2)oc1N1CCN(C(=O)c2ccco2)CC1 | -75.7

SMILES | hERG current change (%, negative = inhibition) at 10uM [%]
COc1ccccc1C1=NOC(Cn2c(NCC3CCCO3)nc3c2c(=O)n(C)c(=O)n3C)C1 (centres unmarked) | 7.71
CCN(c1ccccc1)S(=O)(=O)c1ccc(Cl)c(NC(=O)Nc2ccc(Cl)cc2C#N)c1 | -3.67
COc1ccc(-c2noc(N3CCCC(C(=O)Nc4cc(F)ccc4F)C3)n2)cc1 (centres unmarked) | -10.5
CC(NC(=O)c1ccc(CS(C)(=O)=O)cc1)c1cccc2ccccc12 (centres unmarked) | 10.1
O=C(CNC(=O)c1ccc(Cl)cc1)Nc1ccccc1C(F)(F)F | 12.6
O=C(C(Sc1ccccc1)c1ccc(Br)cc1)N1CCOCC1 (centres unmarked) | -29.5
COc1ccc(N2C(=O)C3CCCN3C2c2ccccc2)cc1 (centres unmarked) | -0.765
Cc1ccc(S(=O)(=O)N2CCC(C(=O)Nc3ccccc3N3CCCC3)CC2)cc1C | -0.74
CC(C)OC(=O)CSc1nnc(-c2ccccn2)n1N | 16
O=C(Nc1ccccc1-c1nnn(CC(=O)N2CCCc3ccccc32)n1)c1ccco1 | -20.8
S=c1[nH]cc(-c2ccc(Cl)cc2)n1-c1ccccc1 | -0.267
O=C(CCCCCCN1C(=O)c2ccccc2C1=O)N1CCC(c2ccccc2)C1 (centres unmarked) | -39.7
CC(C)[C@H](NC(=O)c1cc2cc(Cl)ccc2n1C)C(=O)N[C@@H](C(=O)O)c1ccccc1 | 15.9
CCn1c(P(C)(=O)[O-])nc2cc(NC(=O)c3ccccc3F)ccc21.[K+] | 23.2
CCn1c(=O)c2cc(S(=O)(=O)NC3CCCCC3)ccc2n(CC)c1=O | -8.77
CCOC(=O)/C=C/C(=O)Nc1ccc(Oc2ccccc2)cc1 | 5.06
CCCCOc1ccc(CN2CCN(CCO)CC2)cc1 | 4.3
O=S(=O)(CCc1nc2ccccc2s1)c1ccc(Cl)cc1 | -2.67
